The chains are these.
B1: PhoQ; a variant is named by its letters at X, in order, P23837 (parent)
chain: MKKLLRLFFPLSLRVRFLLATAAVVLVLSLAYGMVALIGYSVSFDKTTFRLLRGESNLFYTLAKWENNKLHVELPENIDKQSPTMTLIYDENGQLLWAQRDVPWLMKMIQPDWLKSNGFHEIEADVNDTSLLLSGDHSIQQQLQEVREDDDDAEMTHSVAVNVYPATSRMPKLTIVVVDTIPVELKSSYMVWSWFIYVLSANLLLVIPLLWVAAWWSLRPIEALAKEVRELEEHNRELLNPATTRELTSLVRNLNRLLKSERERYDKYRTTLTDLTHSLKTPLXXLQXXLRSLRSEKMSVSDAEPVMLEQISRISQQIGYYLHRASMRGGTLLSRELHPVAPLLDNLTSALNKVYQRKGVNISLDISPEISFVGEQNDFVEVMGNVLDNACKYCLEFVEISARQTDEHLYIVVEDDGPGIPLSKREVIFDRGQRVDTLRPGQGVGLAVAREITEQYEGKIVAGESMLGGARMEVIFGRQHSAPKDE

The other results are listed elsewhere or left out.

We go through 153 variants from a collection of fitness landscapes (doi:10.1126/science.1257360).

In the assay the parent is B1. In words: enrichment ratio after two sorts for PhoP signalling (ratio (wild type AVST 3.29)); higher = more functional. As to conditions: with PhoP (E. coli).
Regarding DPRL, the enrichment ratio is at most 0.25. Take LYTA: the enrichment ratio was at most 0.25. Consider RKDD, for which the enrichment ratio was at most 0.25. YHTT: the enrichment ratio is at most 0.25. Then IIAC, with at most 0.25.

For the variant PAHN, the enrichment ratio is at most 0.25.

In the case of RKEA, the enrichment ratio was at most 0.25. With EKRL, the enrichment ratio is at most 0.25. Then FLFT, with at most 0.25; and HYLE, with at most 0.25.

Take PWFS: the enrichment ratio was at most 0.25.

Take RASP: the enrichment ratio was at most 0.25. Regarding YGLP, the enrichment ratio is at most 0.25. As to KMDG, the enrichment ratio was at most 0.25.

With EVWP, the enrichment ratio was at most 0.25. For VYVS the value was at most 0.25. Take DSFQ: the enrichment ratio was at most 0.25. Then MMRD, with at most 0.25.

With DPFC, the enrichment ratio is at most 0.25.

For the variant DIQH, the enrichment ratio is at most 0.25. On to WNFM, for which the enrichment ratio is at most 0.25. With RERV, the enrichment ratio is at most 0.25.

Take HKFF: the enrichment ratio is at most 0.25. Then VRGM, with at most 0.25; and LVMV, with at most 0.25; and VDAN, with at most 0.25. For VFFV, the enrichment ratio was at most 0.25. Take IVMG: the enrichment ratio is at most 0.25. With IHEA, the enrichment ratio is at most 0.25. For YALR, the enrichment ratio was at most 0.25.

Turning to RCQE, the enrichment ratio is at most 0.25. As to IFKT, the enrichment ratio was at most 0.25. Then MMIQ, with at most 0.25.

In the case of ILNF, the enrichment ratio was at most 0.25. In the case of WQHD, the enrichment ratio was at most 0.25. For the variant MQAG, the enrichment ratio turned out to be 4.33. Then DIML, with at most 0.25; and QALH, with at most 0.25; and SDKR, with at most 0.25. For QADI the value was at most 0.25; for YCFS, at most 0.25. In the case of NEWV, the enrichment ratio was at most 0.25. Then DFKF, with at most 0.25; and FMSC, with at most 0.25. For FVSY, the enrichment ratio was at most 0.25. As to LSAG, the enrichment ratio was at most 0.25. Then PTSR, with at most 0.25; and KLVE, with at most 0.25. As for IVCR, the enrichment ratio was at most 0.25. On to AAVK, for which the enrichment ratio is at most 0.25. As to MKSI, the enrichment ratio is at most 0.25. For the variant EQPN, the enrichment ratio was at most 0.25. In the case of LTNL, the enrichment ratio stood at 0.338.

As to TMVA, the enrichment ratio is at most 0.25.

On to SRQS, for which the enrichment ratio is at most 0.25.

In the case of VHWI, the enrichment ratio is at most 0.25. On to QFFP, for which the enrichment ratio is at most 0.25. In the case of TLDP, the enrichment ratio was at most 0.25. For the variant QTYA, the enrichment ratio is at most 0.25.

DTLI: the enrichment ratio was 0.823.

As to AIWL, the enrichment ratio was at most 0.25. For PGKW the value was at most 0.25. SVSV: the enrichment ratio amounted to 8.24. Turning to DMII, the enrichment ratio was at most 0.25. HLWS: the enrichment ratio was at most 0.25. In the case of HWRM, the enrichment ratio is at most 0.25.

With INIS, the enrichment ratio is at most 0.25. Then LRPE, with at most 0.25; and RSQC, with at most 0.25. Consider HWKS, for which the enrichment ratio was at most 0.25. Consider EYNR, for which the enrichment ratio was at most 0.25. In the case of TPVL, the enrichment ratio is at most 0.25. For LSCF, the enrichment ratio is at most 0.25.

On to YQEI, for which the enrichment ratio is at most 0.25.

On to ATIV, for which the enrichment ratio is 8.37. Then IIRQ, with at most 0.25; and TTFH, with 2.3; and ANIQ, with 11.

For HFVA, the enrichment ratio was at most 0.25. Take NCPA: the enrichment ratio is at most 0.25. EHQH: the enrichment ratio is at most 0.25. For the variant YFEN, the enrichment ratio was at most 0.25. As to MYCI, the enrichment ratio was at most 0.25. KLTP: the enrichment ratio is at most 0.25. For LYTE, the enrichment ratio is at most 0.25.

As for PCFM, the enrichment ratio was at most 0.25. VFQT: the enrichment ratio is at most 0.25. In the case of YVVR, the enrichment ratio was at most 0.25. Take RVIM: the enrichment ratio is at most 0.25. Then EFKC, with at most 0.25; and MGDD, with at most 0.25; and ACCF, with 1.93. As to EDTY, the enrichment ratio was at most 0.25. In the case of HDSL, the enrichment ratio is at most 0.25. For YQPE the value was at most 0.25; for HPNH, at most 0.25.

As to DGFR, the enrichment ratio was at most 0.25. Consider DMAS, for which the enrichment ratio was at most 0.25. Turning to YKVQ, the enrichment ratio was at most 0.25.

For the variant IWAR, the enrichment ratio was at most 0.25. On to EKVN, for which the enrichment ratio is at most 0.25.

As to NSNS, the enrichment ratio was at most 0.25.

Consider TCAY, for which the enrichment ratio is 14.1. Then HWCE, with at most 0.25; and GDHI, with at most 0.25; and SYAE, with at most 0.25.

For YFSI, the enrichment ratio was at most 0.25. On to PHHT, for which the enrichment ratio is at most 0.25. For TATM the value was 27; for KNCL, at most 0.25; for LYTW, at most 0.25. Regarding TKAC, the enrichment ratio came to 7.59. For the variant DQWG, the enrichment ratio is at most 0.25. As to PMGW, the enrichment ratio was at most 0.25. Consider AVMD, for which the enrichment ratio was at most 0.25. In the case of KFIE, the enrichment ratio is at most 0.25. With LNCV, the enrichment ratio was at most 0.25.

Turning to QAAQ, the enrichment ratio was at most 0.25. On to KKVR, for which the enrichment ratio was at most 0.25.

Regarding VIFS, the enrichment ratio was at most 0.25. For RRFD, the enrichment ratio was at most 0.25. As to FRRD, the enrichment ratio is at most 0.25. Turning to IKWH, the enrichment ratio was at most 0.25. On to TEVK, for which the enrichment ratio turned out to be 2.74. Then PKQG, with at most 0.25; and MPFT, with at most 0.25. As for PEHF, the enrichment ratio is at most 0.25. Regarding RKQN, the enrichment ratio was at most 0.25. Then MRYR, with at most 0.25; and YHAV, with at most 0.25; and HACF, with at most 0.25. Then KKTW, with at most 0.25. For the variant RSCF, the enrichment ratio is at most 0.25. For RTTY the value was at most 0.25. PCNE: the enrichment ratio was at most 0.25. For KSVI the value was at most 0.25; for VPAG, at most 0.25; for KQFM, at most 0.25. Take WWPM: the enrichment ratio is at most 0.25. On to GPGN, for which the enrichment ratio is at most 0.25. Turning to QFSE, the enrichment ratio was at most 0.25. In the case of YDTR, the enrichment ratio was at most 0.25. Take HDQN: the enrichment ratio is at most 0.25. For RGGL the value was at most 0.25; for RDIE, at most 0.25; for ICHL, at most 0.25.

ARAH: the enrichment ratio was at most 0.25.

NTEY: the enrichment ratio was at most 0.25. With IGDY, the enrichment ratio was at most 0.25. For YCDM the value was at most 0.25; for NMPD, at most 0.25; for LVGM, at most 0.25. For FGDL, the enrichment ratio is at most 0.25.
